Reference: article PMC3510253 (PLoS Pathogens, 2012)
These are yes or no findings as the source states them, for the method shown. For some of these results: In cells and extracts the contact can be indirect. Some entries that bind do so weakly or less than the wild type. For some of these results: Where a sequence is shown, tags or fusion partners need not be part of it.

Protein sequences, listed by entry. Tags and fused reporters are not part of them.
UniProt Q61510: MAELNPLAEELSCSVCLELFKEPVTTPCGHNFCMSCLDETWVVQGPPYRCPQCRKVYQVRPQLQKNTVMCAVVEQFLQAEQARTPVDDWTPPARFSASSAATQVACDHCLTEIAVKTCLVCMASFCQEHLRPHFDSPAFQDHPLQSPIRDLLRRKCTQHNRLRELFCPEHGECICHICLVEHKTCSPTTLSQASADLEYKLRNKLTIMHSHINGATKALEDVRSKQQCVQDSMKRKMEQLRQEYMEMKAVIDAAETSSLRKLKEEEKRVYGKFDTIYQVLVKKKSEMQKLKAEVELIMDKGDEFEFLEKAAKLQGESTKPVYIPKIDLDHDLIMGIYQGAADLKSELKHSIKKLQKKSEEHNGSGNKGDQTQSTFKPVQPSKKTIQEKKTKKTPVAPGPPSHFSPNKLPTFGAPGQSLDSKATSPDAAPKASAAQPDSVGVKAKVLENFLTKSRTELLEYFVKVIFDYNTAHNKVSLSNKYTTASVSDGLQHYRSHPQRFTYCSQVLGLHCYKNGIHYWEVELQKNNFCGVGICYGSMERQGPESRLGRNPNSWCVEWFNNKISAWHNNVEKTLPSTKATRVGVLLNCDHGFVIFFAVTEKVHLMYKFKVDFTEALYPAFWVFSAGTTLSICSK
UniProt P03496: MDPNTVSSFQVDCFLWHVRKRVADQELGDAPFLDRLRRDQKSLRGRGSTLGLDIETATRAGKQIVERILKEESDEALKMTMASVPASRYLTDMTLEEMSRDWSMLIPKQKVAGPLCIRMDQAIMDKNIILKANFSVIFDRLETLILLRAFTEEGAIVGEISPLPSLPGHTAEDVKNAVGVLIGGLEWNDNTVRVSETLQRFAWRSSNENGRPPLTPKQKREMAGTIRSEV
UniProt Q14258: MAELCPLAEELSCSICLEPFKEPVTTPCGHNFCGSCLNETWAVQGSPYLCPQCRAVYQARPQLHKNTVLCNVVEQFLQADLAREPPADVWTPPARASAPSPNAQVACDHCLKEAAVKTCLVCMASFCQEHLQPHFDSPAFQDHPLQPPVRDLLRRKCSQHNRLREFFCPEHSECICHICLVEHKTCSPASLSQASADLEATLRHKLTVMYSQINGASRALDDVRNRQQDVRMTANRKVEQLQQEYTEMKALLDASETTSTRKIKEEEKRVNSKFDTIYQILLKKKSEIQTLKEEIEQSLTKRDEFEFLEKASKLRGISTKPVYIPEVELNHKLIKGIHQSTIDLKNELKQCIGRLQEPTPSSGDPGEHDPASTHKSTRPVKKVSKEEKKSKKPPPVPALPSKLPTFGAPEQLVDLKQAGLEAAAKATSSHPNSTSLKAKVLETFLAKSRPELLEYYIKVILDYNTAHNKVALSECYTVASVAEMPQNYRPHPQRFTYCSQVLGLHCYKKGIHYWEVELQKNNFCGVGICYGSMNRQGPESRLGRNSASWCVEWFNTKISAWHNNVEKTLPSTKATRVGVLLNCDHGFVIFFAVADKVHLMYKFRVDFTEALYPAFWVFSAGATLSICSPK

Assays:
[1] = molecular target: MBP-mouse TRIM25-Flag (mouse) (UniProt Q61510); experiment: pull-down; both purified
[2] = molecular target: T1, HA-tagged human Riplet (human) (UniProt Q8IUD6); experiment: co-IP
T1 sequence: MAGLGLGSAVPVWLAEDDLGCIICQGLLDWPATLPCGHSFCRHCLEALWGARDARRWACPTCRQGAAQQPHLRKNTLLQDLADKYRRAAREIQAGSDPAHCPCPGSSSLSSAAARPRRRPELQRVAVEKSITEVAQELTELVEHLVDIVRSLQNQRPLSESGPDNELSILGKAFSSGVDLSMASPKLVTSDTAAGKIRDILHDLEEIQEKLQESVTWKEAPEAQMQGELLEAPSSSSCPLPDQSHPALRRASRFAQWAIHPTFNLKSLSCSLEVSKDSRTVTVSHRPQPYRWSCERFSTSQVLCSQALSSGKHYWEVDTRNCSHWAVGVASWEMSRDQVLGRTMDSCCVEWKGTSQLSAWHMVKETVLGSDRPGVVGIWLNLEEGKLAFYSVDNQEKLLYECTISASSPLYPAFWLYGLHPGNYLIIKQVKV

[3] = molecular target: NS1 protein of influenza A/Puerto Rico/8/34 (PR8), expressed from the virus in infected cells (influenza A virus A/Puerto Rico/8/34 (PR8)) (UniProt P03496); experiment: co-IP

Substance	binding [3]	also measured
Glutathione-S-transferase (GST)-NS1 fusion protein (PR8) (from UniProt P03496 1-230)	–	binding [1]: no binding
NS1 protein of influenza A/Puerto Rico/8/34 (PR8), expressed from the virus in infected cells (from UniProt P03496 1-230)	–	binding [2]: no binding
endogenous human TRIM25 (from UniProt Q14258 1-630) (enzyme)	binds	–
endogenous mouse TRIM25 (from UniProt Q61510 1-634) (enzyme)	no binding	–
